{"source": "the supplement of paper PMC8728848", "binders": {"B1": {"name": "DC-ASGPR-short (Homo sapiens) (protein)", "chain": "MTRTYENFQYLENKVKVQGFKNGPLPLQSLLQRLRSGPCHLLLSLGLGLLLLVIICVVGFQNSKFQRDLVTLRTDFSNFTSNTVAEIQALTSQGSSLEETIASLKAEVEGFKQERQAVHSEMLLRVQQLVQDLKKLTCQVATLNNNASTEGTCCPVNWVEHQDSCYWFSHSGMSWAEAEKYCQLKNAHLVVINSREEQNFVQKYLGSAYTWMGLSDPEGAWKWVDGTDYATGFQNWKPGQPDDWQGHGLGGGEDCAHFHPDGRWNDDVCQRPYHWVCEAGLGQTSQESH"}}, "assay_in_all_cases": "glycan array binding signal (z-score within array); higher = stronger binding", "conditions_in_all_cases": "glycan notation: IUPAC condensed, linker removed", "key": {"[1]": {"target": "GlcNAc(b1-4)GlcNAc(b1-4)GlcNAc(b1-4)GlcNAc(b1-4)GlcNAc", "outline": "(§1)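 Columns mapping to the same glycan were averaged after glycan names were converted to IUPAC-condensed notation. The data come from 3228 arrays in the Consortium for Functional Glycomics database, limited to those with an available protein sequence. Binding is reported as a within-array Z-score averaged across arrays of one protein sequence and across linkers.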"}, "[2]": {"target": "GlcNAc(b1-4)GlcNAc(b1-4)GlcNAc(b1-4)GlcNAc(b1-4)GlcNAc(b1-4)GlcNAc", "outline": "as §1"}, "[3]": {"target": "GlcNAc(b1-4)[GlcNAc(b1-6)]GalNAc", "outline": "as §1"}, "[4]": {"target": "GlcNAc(b1-6)Gal(b1-4)GlcNAc", "outline": "as §1"}, "GlcNAc(b1-6)GalNAc": {"target": "GlcNAc(b1-6)GalNAc", "outline": "as §1"}, "[5]": {"target": "GlcNAc6S(b1-3)Gal(b1-4)GlcNAc", "outline": "as §1"}, "Kdn(a2-3)Gal(b1-3)GalNAc": {"target": "Kdn(a2-3)Gal(b1-3)GalNAc", "outline": "as §1"}, "Kdn(a2-3)Gal(b1-3)GlcNAc": {"target": "Kdn(a2-3)Gal(b1-3)GlcNAc", "outline": "as §1"}, "Kdn(a2-3)Gal(b1-4)Glc": {"target": "Kdn(a2-3)Gal(b1-4)Glc", "outline": "as §1"}, "Kdn(a2-3)Gal(b1-4)GlcNAc": {"target": "Kdn(a2-3)Gal(b1-4)GlcNAc", "outline": "as §1"}, "[6]": {"target": "Kdn(a2-3)Gal(b1-4)[Fuc(a1-3)]GlcNAc", "outline": "as §1"}, "Kdn(a2-6)Gal(b1-4)GlcNAc": {"target": "Kdn(a2-6)Gal(b1-4)GlcNAc", "outline": "as §1"}, "[7]": {"target": "Man(a1-2)Man(a1-2)Man(a1-3)Man", "outline": "as §1"}, "[8]": {"target": "Man(a1-2)Man(a1-2)Man(a1-6)[Man(a1-3)]Man", "outline": "as §1"}, "Man(a1-2)Man(a1-3)Man": {"target": "Man(a1-2)Man(a1-3)Man", "outline": "as §1"}, "[9]": {"target": "Man(a1-2)Man(a1-3)[Man(a1-2)Man(a1-6)]Man", "outline": "as §1"}, "[10]": {"target": "Man(a1-2)Man(a1-3)[Man(a1-2)Man(a1-6)]Man(a1-6)[Man(a1-2)Man(a1-2)Man(a1-3)]Man", "outline": "as §1"}, "[11]": {"target": "Man(a1-2)Man(a1-3)[Man(a1-2)Man(a1-6)]Man(a1-6)[Man(a1-2)Man(a1-2)Man(a1-3)]Man(b1-4)GlcNAc(b1-4)GlcNAc", "outline": "as §1"}, "[12]": {"target": "Man(a1-2)Man(a1-3)[Man(a1-6)]Man(a1-6)[Man(a1-2)Man(a1-3)]Man(b1-4)GlcNAc(b1-4)GlcNAc", "outline": "as §1"}, "[13]": {"target": "Man(a1-2)Man(a1-6)[Man(a1-3)]Man(a1-6)[Man(a1-2)Man(a1-2)Man(a1-3)]Man", "outline": "as §1"}, "[14]": {"target": "Man(a1-2)Man(a1-6)[Man(a1-3)]Man(a1-6)[Man(a1-2)Man(a1-2)Man(a1-3)]Man(b1-4)GlcNAc(b1-4)GlcNAc", "outline": "as §1"}, "Man(a1-3)[Man(a1-6)]Man": {"target": "Man(a1-3)[Man(a1-6)]Man", "outline": "as §1"}, "[15]": {"target": "Man(a1-3)[Man(a1-6)]Man(a1-6)[Man(a1-2)Man(a1-3)]Man(b1-4)GlcNAc(b1-4)GlcNAc", "outline": "as §1"}, "[16]": {"target": "Man(a1-3)[Man(a1-6)]Man(a1-6)[Man(a1-3)]Man", "outline": "as §1"}, "[17]": {"target": "Man(a1-3)[Man(a1-6)]Man(a1-6)[Man(a1-3)]Man(b1-4)GlcNAc(b1-4)GlcNAc", "outline": "as §1"}, "[18]": {"target": "Man(a1-3)[Man(a1-6)]Man(b1-4)GlcNAc(b1-4)GlcNAc", "outline": "as §1"}, "[19]": {"target": "Man(a1-3)[Man(a1-6)]Man(b1-4)GlcNAc(b1-4)[Fuc(a1-6)]GlcNAc", "outline": "as §1"}, "Man(a1-6)Man": {"target": "Man(a1-6)Man", "outline": "as §1"}, "Man(b1-4)GlcNAc": {"target": "Man(b1-4)GlcNAc", "outline": "as §1"}, "MurNAc(b1-4)GlcNAc": {"target": "MurNAc(b1-4)GlcNAc", "outline": "as §1"}, "Neu5Ac(a2-3)Gal": {"target": "Neu5Ac(a2-3)Gal", "outline": "as §1"}, "[20]": {"target": "Neu5Ac(a2-3)Gal(b1-3)GalNAc", "outline": "as §1"}, "[21]": {"target": "Neu5Ac(a2-3)Gal(b1-3)GalNAc(b1-3)Gal(a1-4)Gal(b1-4)Glc", "outline": "as §1"}, "[22]": {"target": "Neu5Ac(a2-3)Gal(b1-3)GalNAc(b1-4)Gal(b1-4)Glc", "outline": "as §1"}, "[23]": {"target": "Neu5Ac(a2-3)Gal(b1-3)GalNAc(b1-4)[Neu5Ac(a2-3)]Gal(b1-4)Glc", "outline": "as §1"}, "[24]": {"target": "Neu5Ac(a2-3)Gal(b1-3)GalNAc(b1-4)[Neu5Ac(a2-8)Neu5Ac(a2-3)]Gal(b1-4)Glc", "outline": "as §1"}, "[25]": {"target": "Neu5Ac(a2-3)Gal(b1-3)GalNAc6S", "outline": "as §1"}}, "note": "The other results are listed elsewhere or left out."}
{"binder": "B1", "values": [{"measurement": "glycan array binding signal (z-score)", "setting": "[1]", "result": -0.269}, {"measurement": "glycan array binding signal (z-score)", "setting": "[2]", "result": -0.251}, {"measurement": "glycan array binding signal (z-score)", "setting": "[3]", "result": -0.277}, {"measurement": "glycan array binding signal (z-score)", "setting": "[4]", "result": -0.261}, {"measurement": "glycan array binding signal (z-score)", "setting": "GlcNAc(b1-6)GalNAc", "result": 4.64}, {"measurement": "glycan array binding signal (z-score)", "setting": "[5]", "result": -0.27}, {"measurement": "glycan array binding signal (z-score)", "setting": "Kdn(a2-3)Gal(b1-3)GalNAc", "result": -0.244}, {"measurement": "glycan array binding signal (z-score)", "setting": "Kdn(a2-3)Gal(b1-3)GlcNAc", "result": -0.255}, {"measurement": "glycan array binding signal (z-score)", "setting": "Kdn(a2-3)Gal(b1-4)Glc", "result": -0.182}, {"measurement": "glycan array binding signal (z-score)", "setting": "Kdn(a2-3)Gal(b1-4)GlcNAc", "result": -0.272}, {"measurement": "glycan array binding signal (z-score)", "setting": "[6]", "result": -0.278}, {"measurement": "glycan array binding signal (z-score)", "setting": "Kdn(a2-6)Gal(b1-4)GlcNAc", "result": -0.173}, {"measurement": "glycan array binding signal (z-score)", "setting": "[7]", "result": -0.287}, {"measurement": "glycan array binding signal (z-score)", "setting": "[8]", "result": -0.27}, {"measurement": "glycan array binding signal (z-score)", "setting": "Man(a1-2)Man(a1-3)Man", "result": -0.283}, {"measurement": "glycan array binding signal (z-score)", "setting": "[9]", "result": -0.283}, {"measurement": "glycan array binding signal (z-score)", "setting": "[10]", "result": -0.286}, {"measurement": "glycan array binding signal (z-score)", "setting": "[11]", "result": -0.277}, {"measurement": "glycan array binding signal (z-score)", "setting": "[12]", "result": -0.286}, {"measurement": "glycan array binding signal (z-score)", "setting": "[13]", "result": -0.287}, {"measurement": "glycan array binding signal (z-score)", "setting": "[14]", "result": -0.271}, {"measurement": "glycan array binding signal (z-score)", "setting": "Man(a1-3)[Man(a1-6)]Man", "result": -0.273}, {"measurement": "glycan array binding signal (z-score)", "setting": "[15]", "result": -0.215}, {"measurement": "glycan array binding signal (z-score)", "setting": "[16]", "result": -0.286}, {"measurement": "glycan array binding signal (z-score)", "setting": "[17]", "result": -0.271}, {"measurement": "glycan array binding signal (z-score)", "setting": "[18]", "result": -0.307}, {"measurement": "glycan array binding signal (z-score)", "setting": "[19]", "result": -0.269}, {"measurement": "glycan array binding signal (z-score)", "setting": "Man(a1-6)Man", "result": -0.273}, {"measurement": "glycan array binding signal (z-score)", "setting": "Man(b1-4)GlcNAc", "result": -0.27}, {"measurement": "glycan array binding signal (z-score)", "setting": "MurNAc(b1-4)GlcNAc", "result": -0.291}, {"measurement": "glycan array binding signal (z-score)", "setting": "Neu5Ac(a2-3)Gal", "result": -0.283}, {"measurement": "glycan array binding signal (z-score)", "setting": "[20]", "result": -0.235}, {"measurement": "glycan array binding signal (z-score)", "setting": "[21]", "result": -0.277}, {"measurement": "glycan array binding signal (z-score)", "setting": "[22]", "result": -0.281}, {"measurement": "glycan array binding signal (z-score)", "setting": "[23]", "result": -0.283}, {"measurement": "glycan array binding signal (z-score)", "setting": "[24]", "result": -0.231}, {"measurement": "glycan array binding signal (z-score)", "setting": "[25]", "result": -0.279}]}
